This is an account of results in PMC12146697.

Chains of the proteins cited; added tags and fusions are not shown. Lines headed by an entry give the natural chain unless they say otherwise; changes in a name come on top.
UniProt P50516: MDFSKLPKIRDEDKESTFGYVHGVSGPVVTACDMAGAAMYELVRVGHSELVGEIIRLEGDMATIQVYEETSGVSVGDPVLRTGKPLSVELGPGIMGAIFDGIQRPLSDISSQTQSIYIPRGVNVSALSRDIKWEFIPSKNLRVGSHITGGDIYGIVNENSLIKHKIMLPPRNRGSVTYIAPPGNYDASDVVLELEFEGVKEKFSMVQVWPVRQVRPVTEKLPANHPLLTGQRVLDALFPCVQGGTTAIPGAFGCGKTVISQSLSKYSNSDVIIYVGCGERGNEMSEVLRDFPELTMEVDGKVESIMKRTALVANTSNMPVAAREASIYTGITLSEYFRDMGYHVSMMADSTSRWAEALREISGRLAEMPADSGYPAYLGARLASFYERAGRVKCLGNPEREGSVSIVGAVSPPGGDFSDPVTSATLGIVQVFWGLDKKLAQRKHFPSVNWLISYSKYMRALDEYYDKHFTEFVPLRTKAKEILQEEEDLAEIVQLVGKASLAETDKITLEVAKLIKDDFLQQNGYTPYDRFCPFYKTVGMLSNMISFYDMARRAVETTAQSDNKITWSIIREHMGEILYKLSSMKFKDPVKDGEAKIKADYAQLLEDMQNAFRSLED
UniProt P20340: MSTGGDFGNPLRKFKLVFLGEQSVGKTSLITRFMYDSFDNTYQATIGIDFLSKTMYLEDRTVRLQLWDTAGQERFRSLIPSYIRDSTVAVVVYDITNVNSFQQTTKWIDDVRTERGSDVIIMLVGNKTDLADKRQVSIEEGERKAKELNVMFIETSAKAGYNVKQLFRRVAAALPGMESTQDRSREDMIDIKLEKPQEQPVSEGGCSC
UniProt P61026: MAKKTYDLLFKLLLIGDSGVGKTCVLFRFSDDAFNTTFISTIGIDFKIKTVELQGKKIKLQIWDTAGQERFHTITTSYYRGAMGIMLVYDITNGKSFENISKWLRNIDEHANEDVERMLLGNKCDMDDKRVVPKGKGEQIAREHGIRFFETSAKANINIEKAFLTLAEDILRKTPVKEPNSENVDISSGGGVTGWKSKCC
UniProt Q9WTT4: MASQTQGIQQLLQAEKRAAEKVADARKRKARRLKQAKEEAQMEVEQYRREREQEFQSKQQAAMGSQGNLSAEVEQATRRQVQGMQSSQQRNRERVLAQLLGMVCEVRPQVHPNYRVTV

Experiment [1] concerns the target T1, GST-Oxr1 full-length (FL) (Mus musculus) (UniProt Q4KMM3).
T1 sequence: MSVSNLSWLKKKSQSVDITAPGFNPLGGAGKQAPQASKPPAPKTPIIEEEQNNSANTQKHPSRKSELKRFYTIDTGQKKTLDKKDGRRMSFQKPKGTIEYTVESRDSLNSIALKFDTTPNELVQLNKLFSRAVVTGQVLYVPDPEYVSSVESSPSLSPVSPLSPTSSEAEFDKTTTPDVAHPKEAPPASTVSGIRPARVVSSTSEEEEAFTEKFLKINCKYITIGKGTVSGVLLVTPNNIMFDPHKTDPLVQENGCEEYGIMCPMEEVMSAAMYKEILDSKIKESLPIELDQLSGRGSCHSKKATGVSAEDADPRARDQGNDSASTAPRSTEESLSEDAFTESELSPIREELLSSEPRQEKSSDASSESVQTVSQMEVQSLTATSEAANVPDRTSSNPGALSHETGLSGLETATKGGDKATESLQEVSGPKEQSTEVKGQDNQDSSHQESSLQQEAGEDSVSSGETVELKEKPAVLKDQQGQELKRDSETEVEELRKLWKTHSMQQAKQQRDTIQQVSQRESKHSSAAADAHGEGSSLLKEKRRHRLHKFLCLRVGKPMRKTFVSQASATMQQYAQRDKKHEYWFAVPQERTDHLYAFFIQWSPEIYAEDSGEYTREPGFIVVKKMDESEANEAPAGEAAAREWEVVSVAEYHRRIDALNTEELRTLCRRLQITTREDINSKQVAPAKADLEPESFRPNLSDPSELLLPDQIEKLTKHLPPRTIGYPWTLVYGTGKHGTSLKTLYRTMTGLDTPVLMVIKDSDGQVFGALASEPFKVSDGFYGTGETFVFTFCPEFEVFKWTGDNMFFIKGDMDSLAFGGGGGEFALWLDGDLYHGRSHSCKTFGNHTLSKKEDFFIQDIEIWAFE
As to the kind of experiment: pull-down; 10 ug GST-fused Oxr1 protein on glutathione-Sepharose, mouse brain lysed in RIPA buffer (to dissociate the V-ATPase subunits) and diluted 1:50 in NL100, 1 mg protein, 1 h, 4 °C; immunoblot for V1 subunits; only the target purified.

The target in experiment [2] is T2, GST-Oxr1-TLDc (Mus musculus) (UniProt Q4KMM3).
T2 sequence: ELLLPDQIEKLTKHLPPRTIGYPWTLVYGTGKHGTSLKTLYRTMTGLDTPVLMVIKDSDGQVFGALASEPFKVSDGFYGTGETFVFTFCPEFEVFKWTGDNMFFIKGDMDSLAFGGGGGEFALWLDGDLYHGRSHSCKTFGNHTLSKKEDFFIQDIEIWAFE
The description is as above.

Experiment [3] deals with FLAG-tagged ATP6V1A (Mus musculus) (UniProt P50516). As to the kind of experiment: pull-down; FLAG-ATP6V1A on FLAG M2 agarose, nucleotide-free (washed with NE500: 500 mM NaCl, 20 mM EDTA), incubated with GST-TLDc proteins in NL100, 1 h, 4 °C; immunoblot with anti-GST; both purified.
Experiment [4] has the same target. Description: pull-down; FLAG-ATP6V1A on FLAG M2 agarose, stripped of nucleotide, incubated with GST-TLDc proteins in NL100 with 100 uM AMP-PNP, 1 h, 4 °C; immunoblot with anti-GST; both purified. (In general: A western blot detects proteins with antibodies after separation by electrophoresis.)
For experiment [5] the target is unchanged. As to the kind of experiment: pull-down; FLAG-ATP6V1A on FLAG M2 agarose, stripped of nucleotide, incubated with GST-TLDc proteins in NL100 with 100 uM ADP, 1 h, 4 °C; immunoblot with anti-GST; both purified.
Experiment [6] deals with GST-fused GTP-bound Rab6a Q72A (UniProt P20340). Description: pull-down; 1 ug His6-tagged Oxr1 with 5 ug immobilised GST-fused Rab6 (GDP-loaded T27N, GTP-loaded Q72A or GTP-loaded WT) in NL100 buffer, 1 h, 4 °C; immunoblot with anti-Oxr1; both purified.
Experiment [7] deals with GST-fused GDP-bound Rab6a T27N (UniProt P20340). Described as above.
The target of experiment [8] is GST-fused GTP-bound Rab6a WT (UniProt P20340). The description is as above.
The target of experiment [9] is Rab10 WT (Gal4-BD, pFBT9) (UniProt P61026). As to the kind of experiment: two-hybrid; Gal4-AD (pACT2-Oxr1) with Gal4-BD (pFBT9-Rab) in strain PJ96-4A; growth on SC-LW and QDO, 3 d, 30 °C.
For experiment [10], the target named is T3, Rab19b WT (Gal4-BD, pFBT9) (UniProt A4D1S5).
T3 sequence: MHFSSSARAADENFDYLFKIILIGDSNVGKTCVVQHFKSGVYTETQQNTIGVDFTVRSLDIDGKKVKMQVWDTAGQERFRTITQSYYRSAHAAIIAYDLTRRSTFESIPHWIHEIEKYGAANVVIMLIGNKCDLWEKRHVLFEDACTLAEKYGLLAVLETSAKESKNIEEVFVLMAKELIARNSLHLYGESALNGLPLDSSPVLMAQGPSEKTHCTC
Described as above.

Experiment [11] deals with Rab6 WT (Gal4-BD, pFBT9) (UniProt P20340). The experiment is described as above.
The target in experiment [12] is T4, Rab43 WT (Gal4-BD, pFBT9) (UniProt Q86YS6).
T4 sequence: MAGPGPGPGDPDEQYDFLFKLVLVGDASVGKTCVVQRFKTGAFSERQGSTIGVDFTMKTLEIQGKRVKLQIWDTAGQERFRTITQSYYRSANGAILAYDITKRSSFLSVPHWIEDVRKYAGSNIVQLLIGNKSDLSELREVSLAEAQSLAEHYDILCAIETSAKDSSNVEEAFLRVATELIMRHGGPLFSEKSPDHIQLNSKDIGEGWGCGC
Described as above.

The target of experiment [13] is T5, Rab39a WT (Gal4-BD, pFBT9) (UniProt Q14964).
T5 sequence: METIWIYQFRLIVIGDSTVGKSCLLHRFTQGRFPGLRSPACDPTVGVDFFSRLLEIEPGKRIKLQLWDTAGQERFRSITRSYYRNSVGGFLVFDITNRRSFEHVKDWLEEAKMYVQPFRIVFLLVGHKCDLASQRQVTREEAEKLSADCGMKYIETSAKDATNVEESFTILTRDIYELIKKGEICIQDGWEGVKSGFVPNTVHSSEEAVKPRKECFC
Described as above.

These are yes or no findings as the source states them, for the method shown. For some assays here: In cells and extracts the contact can be indirect. Some entries that bind do so weakly or less than the wild type. Where a sequence is shown, tags or fusion partners need not be part of it.

“ATP6V1G2 (endogenous, mouse brain) (from UniProt Q9WTT4 1-118)”: in [1], the binding entry was “no binding”.

Turning to “ATP6V1A (endogenous, mouse brain) (from UniProt P50516 1-617)”, the binding entry in [2] and in experiment [1] was “binds” throughout.

B1: GST-Ncoa7 TLDc (domain or fragment, UniProt Q6DFV7-1 782-943)
chain: ALLENMHIEQLARRLPARVQGYPWRLAYSTLEHGTSLKTLYRKSASLDSPVLLVIKDMDNQIFGAYATHPFKFSDHYYGTGETFLYTFSPNFKVFKWSGENSYFINGDISSLELGGGGGRFGLWLDADLYHGRSNSCSTFNNDILSKKEDFIVQDLEVWTFE
For the molecule B1, the binding result in experiment [3] is listed as “no binding (condition: nucleotide-free ATP6V1A)”; in [4] it was “binds”; in experiment [5], “no binding (condition: ATP6V1A loaded with 100 µM ADP)”.

B2: His6-tagged Oxr1 (full-length) (protein, UniProt Q4KMM3-1 1-866)
chain: MSVSNLSWLKKKSQSVDITAPGFNPLGGAGKQAPQASKPPAPKTPIIEEEQNNSANTQKHPSRKSELKRFYTIDTGQKKTLDKKDGRRMSFQKPKGTIEYTVESRDSLNSIALKFDTTPNELVQLNKLFSRAVVTGQVLYVPDPEYVSSVESSPSLSPVSPLSPTSSEAEFDKTTTPDVAHPKEAPPASTVSGIRPARVVSSTSEEEEAFTEKFLKINCKYITIGKGTVSGVLLVTPNNIMFDPHKTDPLVQENGCEEYGIMCPMEEVMSAAMYKEILDSKIKESLPIELDQLSGRGSCHSKKATGVSAEDADPRARDQGNDSASTAPRSTEESLSEDAFTESELSPIREELLSSEPRQEKSSDASSESVQTVSQMEVQSLTATSEAANVPDRTSSNPGALSHETGLSGLETATKGGDKATESLQEVSGPKEQSTEVKGQDNQDSSHQESSLQQEAGEDSVSSGETVELKEKPAVLKDQQGQELKRDSETEVEELRKLWKTHSMQQAKQQRDTIQQVSQRESKHSSAAADAHGEGSSLLKEKRRHRLHKFLCLRVGKPMRKTFVSQASATMQQYAQRDKKHEYWFAVPQERTDHLYAFFIQWSPEIYAEDSGEYTREPGFIVVKKMDESEANEAPAGEAAAREWEVVSVAEYHRRIDALNTEELRTLCRRLQITTREDINSKQVAPAKADLEPESFRPNLSDPSELLLPDQIEKLTKHLPPRTIGYPWTLVYGTGKHGTSLKTLYRTMTGLDTPVLMVIKDSDGQVFGALASEPFKVSDGFYGTGETFVFTFCPEFEVFKWTGDNMFFIKGDMDSLAFGGGGGEFALWLDGDLYHGRSHSCKTFGNHTLSKKEDFFIQDIEIWAFE
Turning to B2, the binding result in experiment [6] is reported as “binds”; in [7], “no binding”; in experiment [8], “binds”.

B3: Gal4-AD Oxr1 (pACT2-Oxr1) (protein, UniProt Q4KMM3-1 1-866)
chain: MSVSNLSWLKKKSQSVDITAPGFNPLGGAGKQAPQASKPPAPKTPIIEEEQNNSANTQKHPSRKSELKRFYTIDTGQKKTLDKKDGRRMSFQKPKGTIEYTVESRDSLNSIALKFDTTPNELVQLNKLFSRAVVTGQVLYVPDPEYVSSVESSPSLSPVSPLSPTSSEAEFDKTTTPDVAHPKEAPPASTVSGIRPARVVSSTSEEEEAFTEKFLKINCKYITIGKGTVSGVLLVTPNNIMFDPHKTDPLVQENGCEEYGIMCPMEEVMSAAMYKEILDSKIKESLPIELDQLSGRGSCHSKKATGVSAEDADPRARDQGNDSASTAPRSTEESLSEDAFTESELSPIREELLSSEPRQEKSSDASSESVQTVSQMEVQSLTATSEAANVPDRTSSNPGALSHETGLSGLETATKGGDKATESLQEVSGPKEQSTEVKGQDNQDSSHQESSLQQEAGEDSVSSGETVELKEKPAVLKDQQGQELKRDSETEVEELRKLWKTHSMQQAKQQRDTIQQVSQRESKHSSAAADAHGEGSSLLKEKRRHRLHKFLCLRVGKPMRKTFVSQASATMQQYAQRDKKHEYWFAVPQERTDHLYAFFIQWSPEIYAEDSGEYTREPGFIVVKKMDESEANEAPAGEAAAREWEVVSVAEYHRRIDALNTEELRTLCRRLQITTREDINSKQVAPAKADLEPESFRPNLSDPSELLLPDQIEKLTKHLPPRTIGYPWTLVYGTGKHGTSLKTLYRTMTGLDTPVLMVIKDSDGQVFGALASEPFKVSDGFYGTGETFVFTFCPEFEVFKWTGDNMFFIKGDMDSLAFGGGGGEFALWLDGDLYHGRSHSCKTFGNHTLSKKEDFFIQDIEIWAFE
Regarding B3, the binding result in experiment [9], in experiment [10], in experiment [11], in [12] and in experiment [13] was “binds weakly” in each case.

B4: GST-Oxr1-TLDc (domain or fragment, UniProt Q4KMM3-1 705-866)
chain: ELLLPDQIEKLTKHLPPRTIGYPWTLVYGTGKHGTSLKTLYRTMTGLDTPVLMVIKDSDGQVFGALASEPFKVSDGFYGTGETFVFTFCPEFEVFKWTGDNMFFIKGDMDSLAFGGGGGEFALWLDGDLYHGRSHSCKTFGNHTLSKKEDFFIQDIEIWAFE
For the molecule B4, the values for the binding entry in experiment [3], in experiment [4] and in experiment [5] were “no binding (condition: nucleotide-free ATP6V1A)”, “binds” and “no binding (condition: ATP6V1A loaded with 100 µM ADP)”, respectively.
